According to PubChem BioAssay AID588689 (Southern Research Specialized Biocontainment Screening …, 2011):
Where “and” joins values, the source holds several entries; their conditions need not be identical. Equal values may be shown once. In all, about 340,000 compounds went through this assay and about 1,000 (0.29%) were called active. The shares of active, inactive and inconclusive entries below differ from those in the screen. No stated cut-off is given here; in the data, inconclusive means inhibition above about 29% without an active follow-up result; inactive means below that.

The compounds below were run against Genome polyprotein (Dengue virus type 2 (strain 16681-PDK53)) (UniProt P29991) (assay: Dengue-2 NS5 methyltransferase inhibitors, primary screen, biochemical, confirmation dose response (AID 588689)). Details: Dengue-2 NS5 methyltransferase capping enzyme assay, at 25 µM, hits give high values.
Sequence of UniProt P29991 (P29991 whole entry, looked up): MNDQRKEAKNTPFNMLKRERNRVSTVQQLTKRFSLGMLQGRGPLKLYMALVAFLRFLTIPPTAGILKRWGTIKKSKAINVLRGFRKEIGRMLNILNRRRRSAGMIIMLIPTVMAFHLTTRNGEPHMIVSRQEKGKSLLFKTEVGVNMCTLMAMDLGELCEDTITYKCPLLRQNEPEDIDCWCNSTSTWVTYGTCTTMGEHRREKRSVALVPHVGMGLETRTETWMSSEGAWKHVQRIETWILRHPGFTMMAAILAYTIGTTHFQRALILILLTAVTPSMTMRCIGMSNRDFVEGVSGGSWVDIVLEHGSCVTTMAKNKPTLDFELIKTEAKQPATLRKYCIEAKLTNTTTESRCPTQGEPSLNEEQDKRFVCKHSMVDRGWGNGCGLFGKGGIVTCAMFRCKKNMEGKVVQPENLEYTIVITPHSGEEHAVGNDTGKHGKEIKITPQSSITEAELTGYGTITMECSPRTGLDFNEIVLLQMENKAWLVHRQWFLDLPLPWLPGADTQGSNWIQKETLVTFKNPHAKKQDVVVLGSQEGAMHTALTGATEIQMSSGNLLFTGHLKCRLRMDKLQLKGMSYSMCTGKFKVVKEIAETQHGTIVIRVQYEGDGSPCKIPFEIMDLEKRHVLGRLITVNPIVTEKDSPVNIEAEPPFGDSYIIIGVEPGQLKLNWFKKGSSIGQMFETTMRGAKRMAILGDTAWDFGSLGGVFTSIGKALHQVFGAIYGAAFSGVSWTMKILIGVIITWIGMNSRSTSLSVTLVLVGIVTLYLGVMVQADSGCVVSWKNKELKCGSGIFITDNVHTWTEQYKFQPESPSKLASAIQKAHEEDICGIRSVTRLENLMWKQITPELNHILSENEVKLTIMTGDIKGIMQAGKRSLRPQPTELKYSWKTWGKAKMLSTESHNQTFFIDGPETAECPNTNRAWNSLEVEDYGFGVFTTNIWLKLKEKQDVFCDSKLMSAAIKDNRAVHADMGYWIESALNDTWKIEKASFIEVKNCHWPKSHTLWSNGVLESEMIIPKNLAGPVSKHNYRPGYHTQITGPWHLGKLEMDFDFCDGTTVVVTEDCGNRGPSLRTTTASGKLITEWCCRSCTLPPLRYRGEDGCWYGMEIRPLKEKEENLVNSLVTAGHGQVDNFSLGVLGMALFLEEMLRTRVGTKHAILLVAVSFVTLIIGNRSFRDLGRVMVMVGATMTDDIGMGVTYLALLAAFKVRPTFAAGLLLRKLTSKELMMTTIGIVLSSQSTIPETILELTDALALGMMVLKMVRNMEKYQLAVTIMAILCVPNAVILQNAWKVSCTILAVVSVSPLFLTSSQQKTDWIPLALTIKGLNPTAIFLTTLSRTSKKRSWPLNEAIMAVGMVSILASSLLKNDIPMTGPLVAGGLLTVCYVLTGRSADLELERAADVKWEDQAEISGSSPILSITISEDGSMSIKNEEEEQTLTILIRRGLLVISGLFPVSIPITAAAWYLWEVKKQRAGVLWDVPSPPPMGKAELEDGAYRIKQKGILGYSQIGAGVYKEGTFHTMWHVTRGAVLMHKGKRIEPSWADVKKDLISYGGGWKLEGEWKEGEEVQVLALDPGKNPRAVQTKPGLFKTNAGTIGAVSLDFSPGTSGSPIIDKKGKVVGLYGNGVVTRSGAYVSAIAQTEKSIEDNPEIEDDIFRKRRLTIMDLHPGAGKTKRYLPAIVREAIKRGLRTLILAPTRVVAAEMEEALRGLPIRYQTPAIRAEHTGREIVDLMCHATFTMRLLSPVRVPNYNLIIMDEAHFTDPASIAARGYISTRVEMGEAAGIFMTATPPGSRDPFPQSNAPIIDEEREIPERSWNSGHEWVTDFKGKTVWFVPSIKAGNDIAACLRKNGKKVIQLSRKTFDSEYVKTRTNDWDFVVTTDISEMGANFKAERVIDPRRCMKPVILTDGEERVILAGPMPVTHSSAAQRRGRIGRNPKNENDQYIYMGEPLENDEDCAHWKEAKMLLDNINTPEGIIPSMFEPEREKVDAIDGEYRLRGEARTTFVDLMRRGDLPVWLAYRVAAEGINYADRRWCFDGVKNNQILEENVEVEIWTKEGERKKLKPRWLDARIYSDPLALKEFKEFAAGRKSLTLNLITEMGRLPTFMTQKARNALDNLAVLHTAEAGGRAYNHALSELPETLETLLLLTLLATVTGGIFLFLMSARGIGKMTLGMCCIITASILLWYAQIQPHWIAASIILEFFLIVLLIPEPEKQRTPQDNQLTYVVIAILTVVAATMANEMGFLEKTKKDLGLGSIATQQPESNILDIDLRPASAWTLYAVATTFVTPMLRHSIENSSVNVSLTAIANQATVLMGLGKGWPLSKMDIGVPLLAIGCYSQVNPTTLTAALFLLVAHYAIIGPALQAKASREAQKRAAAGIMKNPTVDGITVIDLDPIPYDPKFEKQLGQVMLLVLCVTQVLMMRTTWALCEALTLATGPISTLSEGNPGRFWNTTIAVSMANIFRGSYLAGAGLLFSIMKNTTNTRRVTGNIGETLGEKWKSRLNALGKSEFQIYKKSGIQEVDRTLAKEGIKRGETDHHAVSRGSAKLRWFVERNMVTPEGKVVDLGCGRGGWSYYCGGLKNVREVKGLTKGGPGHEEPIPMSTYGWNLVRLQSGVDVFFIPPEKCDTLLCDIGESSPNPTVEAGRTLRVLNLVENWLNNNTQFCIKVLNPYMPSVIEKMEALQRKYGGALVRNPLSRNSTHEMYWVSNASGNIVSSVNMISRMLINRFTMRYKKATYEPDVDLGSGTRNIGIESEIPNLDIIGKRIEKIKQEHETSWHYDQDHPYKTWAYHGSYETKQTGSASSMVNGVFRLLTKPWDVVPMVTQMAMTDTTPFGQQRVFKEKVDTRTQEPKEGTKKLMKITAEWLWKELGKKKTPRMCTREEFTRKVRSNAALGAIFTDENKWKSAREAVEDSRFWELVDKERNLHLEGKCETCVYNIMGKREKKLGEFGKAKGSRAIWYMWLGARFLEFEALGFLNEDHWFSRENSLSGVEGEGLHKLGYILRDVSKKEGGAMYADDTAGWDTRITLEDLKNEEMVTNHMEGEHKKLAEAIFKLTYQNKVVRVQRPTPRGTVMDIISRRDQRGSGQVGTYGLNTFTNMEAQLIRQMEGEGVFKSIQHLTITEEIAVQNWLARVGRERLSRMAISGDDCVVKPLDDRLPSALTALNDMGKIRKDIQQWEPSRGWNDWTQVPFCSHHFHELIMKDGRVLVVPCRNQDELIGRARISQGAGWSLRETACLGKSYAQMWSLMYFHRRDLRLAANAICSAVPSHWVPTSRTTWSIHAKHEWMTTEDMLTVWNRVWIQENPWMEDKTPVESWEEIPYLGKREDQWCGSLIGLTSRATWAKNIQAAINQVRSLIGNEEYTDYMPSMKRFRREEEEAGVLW
For `Cc1ccc2ccc(C3C(=O)c4ccccc4C3=O)nc2c1`, the inhibition was inconclusive: 38.5%.
In the case of `CCNC(=O)c1cc2c(=O)n3cccc(C)c3nc2n(Cc2ccc(C)cc2)c1=N`, the inhibition is reported as inconclusive: 38.5%.
With `COc1ccc(NC(=O)C2CCC(CNc3c(N4CCC(C)CC4)c(=O)c3=O)CC2)cc1OC` (configuration not stated) the inhibition was inactive: -6.26% and inactive: 8.76%.
With `CCOc1cc(/C=C2\SC(=S)N(NS(=O)(=O)c3ccccc3)C2=O)ccc1O` the inhibition was inconclusive: 47.4%.
`Cn1cc(/C=C/c2cc[n+](C)cc2)c2cc(F)ccc21` was tested, and the inhibition was inconclusive: 173%.
With `O=c1ccc2c(-c3ccccc3)c3ccc(O)cc3oc-2c1` the inhibition was inconclusive: 170%.
`Cc1cccc2cc(/C=C3\N=C(c4ccccc4)OC3=O)c(N3CCOCC3)nc12` was tested, and the inhibition was inconclusive: 60.8%.
`O=C(O)COc1ccc(Br)cc1C(c1c(C(=O)O)[nH]c2ccccc12)c1c(C(=O)O)[nH]c2ccccc12` was tested, and the inhibition was inconclusive: 78.1%.
For `O=C1/C(=C/c2ccc(N3CCCC3)cc2)NC(=S)N1C1CC1`, the inhibition was inconclusive: 139%.
For `Fc1ccc(Br)cc1C1C=C(c2ccc(Br)cc2)Nc2ncnn21` (configuration not stated), the inhibition was inconclusive: 50.3%.
With `Clc1ccc(-c2csc(-c3ccno3)n2)cc1` the inhibition was inactive: -5.36%.
With `COc1ccc(/C=C/c2nc3sc4c(c3c(=O)o2)CCC4)cc1` the inhibition was inconclusive: 39.7%.
For `CSc1nc(Cl)c(Cc2ccc(OC(C)C)cc2)c(N(C)C)n1`, the inhibition was inactive: -2.55%.
With `COC(=O)C1=C(C)NC2=C(C(=O)c3ccccc32)C1c1ccc(-c2ccc(C(=O)O)cc2)o1` (configuration not stated) the inhibition was inconclusive: 43.3%.
With `Nc1c(C(=O)Nc2ccccc2F)sc2nc(Cc3ccccc3)cc(C(F)(F)F)c12` the inhibition was inconclusive: 60.4%.
With `COc1ccccc1/C=C/C=c1\sc2nc(=O)c(Cc3ccccc3)nn2c1=O` the inhibition was inactive: -9.19%.
With `COc1ccc(C(=O)OCc2csc(C)n2)c(O)c1` the inhibition was inactive: -2.19%.
For `Cc1c(NC(=S)N/N=C/c2ccc(N(C)C)cc2)c(=O)n(-c2ccccc2)n1C`, the inhibition was inconclusive: 152%.
With `COc1ccc(C(=O)c2ccc(N3CCN(C(=O)c4ccc(F)cc4)CC3)c(F)c2)cc1Br` the inhibition was inactive: 4.82%.
In the case of `COc1ccc(/C(O)=C/c2nc3ccc(C(=O)NCCc4cccc(C)c4)cc3[nH]c2=O)cc1OC`, the inhibition is reported as inconclusive: 35.6%.
`CC1CC(=O)c2c(cc3c(-c4c(O)cc(O)c5c(O)c6c(cc45)OC(C)CC6=O)c(O)cc(O)c3c2O)O1` (configuration not stated) was tested, and the inhibition was inconclusive: 80.7%.
In the case of `CC1=Nc2ccccc2/C1=C\c1nc(-c2ccc(C(F)(F)F)cc2)oc1O`, the inhibition is reported as inconclusive: 104%.
